19 variants from the RNAGym collection of RNA variant scans (doi:10.1073/pnas.2313332121) can be followed below.

This sample is rich in variants without activity.

The labels stand for the following.
B1: TPR 5TU (parent)
chain: GGAUCUUCUCGAUCUAACAAAAAAGACAAAUCUGCCACAAAGCUUGAGAGCAUCUUCGGAUGCAGAGGCGGCAGCCUUCGGUGGCGCGAUAGCGCCAACGUUCUCAACUAUGACACGCAAAACGCGUGCUCCGUUGAAUGGAGUUUAUCAUG

In this data set the parent is B1. Kind of data set: polymerase ribozyme fitness, log enrichment relative to wild type (log ratio); higher = more active; in vitro selection for triplet polymerase activity. An outline of the steps: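 A heterodimeric triplet polymerase ribozyme had each of its subunits mutagenized by PCR into a library, which was transcribed. One round of in vitro selection, done in triplicate, annealed each library with a biotinylated primer, its partner subunit and triplets, then incubated it frozen at −7 °C before gel excision of extended constructs, streptavidin-bead capture and RT-PCR. Fitness is the logarithm of genotype enrichment relative to wild-type enrichment, based on Illumina sequencing of inputs and outputs and inverse-variance-weighted replicate averages. A base-2 logarithm is used, and genotypes were kept only with ≥10 input reads and ≥1 read per output.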
Consider GGAUCUUCUCGAUCUAACAAAAAAGACAAAUCUGCCACAAAGCAUGAGAGCAUCUUCGGAUGCAGAAGCGGCAGCCUUCGGUGGCGCGAUAGCGCCAAGGUUCUCAACUAUGACACGCAAAACGCGUGCUCCGUUGAAUGGAGUUUAUCAUG [U44A G67A C99G], for which the “polymerase ribozyme fitness (log ratio)” value is at most -4.2.

On to GGAUCUUCUCGAUCUAACAAAAAAGACAAAUCUGCCACAAAGCAUGAGAGCAUCUUCGGAUGCAGAGGCGGCAGCCUUCGGUCGCGCGAUAGCGCCAACGUUCUCAACUAUGACACGCAAAACGCGUGCUCCGUUGAAUGGAGUUUAUCAUG [U44A G83C], for which the “polymerase ribozyme fitness (log ratio)” value was at most -4.2. With GGAUCUUCUCGAUCUAACAAAAAAGACAAAUCUGCCACAAAGCAUGAGAGCAUCUUCGGAUGCAGAGGCGGCAGCCUUCAGUGGCGCGAUAGUGUCAACGUUCUCAACUAUGACACGCAAAACGCGUGCUCCGUUGAAUGGAGUUUAUCAUG [U44A G80A C93U C95U], the “polymerase ribozyme fitness (log ratio)” value is at most -4.2. Take GGAUCUUCUCGAUCUAACAAAAAAGACAAAUCUGCCACAAAGCGUGAGAGCAUCUUCGGAUGCAGAGGCGGCAGCCUUCGGUGGGGCGAUAGCGCCAACGUUCUCAACUAUGACACUCAAAACGCGUGCUCCGUUGAAUCGAGUUUAUCAUC [U44G C85G G117U G140C G152C]: the “polymerase ribozyme fitness (log ratio)” value was at most -4.2. The figure for GGAUCUUCUCGAUCUAACAAAAAAGACAAAUCUGCCACAAAGCAGGAGAGCAUCUUAGGAUGCAGAGUCGGCAGCCUUCGGUGGCGCGAAAGCGCCAACGUUCUCAACUAUGACACGCAAAACGCGUGCACCGUUGAAUGGAGUUUAACAUG [U44A U45G C57A G68U U90A U130A U148A] is at most -4.2. For the variant GGAUCUUCUCGAUCUAACAAAAAAGACAAAUCUGCCACAAAGCAUGAGAGCAUCUUCGGAUGCAGAGGCGGCAGCCUUCGGUUGCGCGAUAGCGCCAUCGUUCUCAACUAUGACACGCAAAACGCGUGCUCCGUUGAAUGGAGUUUAUCAUG [U44A G83U A98U], the “polymerase ribozyme fitness (log ratio)” value was at most -4.2. For GGAUCUUCUCGAUCUAACAAAAAAGACAAAUCUGCCACAAAGCCUGAGAGCAUCUUCGGAUGCUGAGGCGGCAGCCUUCGGUGGGGCGGUAGCGCCAACGUUCUCACCUAUGACACGCAAAACGCGUACUCCGUUGAAUGGAGUUUAUCCUG [U44C A64U C85G A89G A107C G128A A150C], the “polymerase ribozyme fitness (log ratio)” value is at most -4.2.

For the variant GGAUCUUCUCGAUCUAACAAAAAAGACAAAUCUGCCACAAAGCGUGAGAGCAUCUUUGGAUGCAGAGGCGGCAGCCUUCGGUGGCGAGAUUGCGCCAACGUUCUCAACUAUGACACGUAAAACGCGUGCUCCGUUGACUGGAGCUCAUCAUA [U44G C57U C87A A91U C118U A138C U144C U146C G152A], the “polymerase ribozyme fitness (log ratio)” value was at most -4.2. For the variant GGAUCUUCUCGAUCUAACAAAAAAGACAAAUCUGCCACAAAGCGUGAGAGCGUCUUCGGAUGCAGAGGCGGCAGCCUUAGGUGGCGCGAUAGCGCCAACGUUAUCAACUAUGACACGCAAUACGCGUGCUCCGUUGAAUGGAGUUUAUCAUG [U44G A52G C79A C103A A121U], the “polymerase ribozyme fitness (log ratio)” value is at most -4.2. Consider GGAUCUUCUCGAUCUAACAAAAAAGACAAAUCUGCCACAAAGCCUGAGAGCAUCUUCGGAUGCAGAGGCGGCAGCCUUCGGUGGCCCGAGAGCGCCCAUGUUCUCAACUAUGACACGCAAAACGCGUGCUCCGUUGAAUGGAGUUGAUCGUG [U44C G86C U90G A97C C99U U146G A150G], for which the “polymerase ribozyme fitness (log ratio)” value is at most -4.2. The value for GGAUCUUCUCGAUCUAACAAAAAAGACAAAUCUGCCACAAAGCCUGAGAGCAUCUUCGGAUGCAGAGGCGGCAGCCUUCGGUGGAACGAUAGCGCCAACGUUCUCAACUAUGACACGCAAAACGCGUGCUCCGUUGAAUGGAGUAUAUCAUG [U44C C85A G86A U145A] was at most -4.2; that for GGAUCUUCUCGAUCUAACAAAAAAGACAAAUCUGCCACAAAGCAUGAGAGCAUCUUCGGAUGCAGAGGCGGCAGCCUUCGGUGGCGCGAUAGCGCCAACGUUCUCAACUAUGACACGCAAAACGCGUGCUCCGUUUAAUGGAGUUUAUCAUG [U44A G136U] was at most -4.2. In the case of GGAUCUUCUCGAUCUAACAAAAAAGACAAAUCUGCCACAAAGCGUGAGCGCAUCUUCGGAUGCAGAGGCGGCAGCCUUCGGUGGCGGGAUAGCGCCAUCGUUCUCAACUAUGACACGCAAAACGCGUGCUCCGUUGAAUGGAGUUUAUCAUG [U44G A49C C87G A98U], the “polymerase ribozyme fitness (log ratio)” value is at most -4.2. Turning to GGAUCUUCUCGAUCUAACAAAAAAGACAAAUCUGCCACAAAGCACGAGAGCGUCUUCGGAUGCAGAGGCGGCAGCCUUCGGUGGCGCGAUAGCGCUAACGUUCUCAACUAUGACUCGCAAAACGCGUGCUCCGUUGAAUGGAGUUUAUCAUG [U44A U45C A52G C96U A115U], the “polymerase ribozyme fitness (log ratio)” value was at most -4.2. As for GGAUCUUCUCGAUCUAACAAAAAAGACAAAUCUGCCACAAAGCAAGAGAGCAUCUUCGGAUGCAGAGGCGGCAGCAUUCGGUGGCAGGAUAGCGCCAACGUUCUCAACUAUGACACGUAAUACGCGUGCUCCGUUGAAUGGAGUUUAUCAUG [U44A U45A C76A G86A C87G C118U A121U], the “polymerase ribozyme fitness (log ratio)” value is at most -4.2. Take GGAUCUUCUCGAUCUAACAAAAAAGACAAAUCUGCCACAAAGCGUGAGAGCAUCUUCGGAUGCAGAGGCGGCAGCCUUCGGUGGCGCGAUCGCGCCAACGUUCUCAACUAUGACACGCAAAACGCAUGCUCCGUUGAAUGGACUUUAUCAUG [U44G A91C G126A G143C]: the “polymerase ribozyme fitness (log ratio)” value was at most -4.2. As for GGAUCUUCUCGAUCUAACAAAAAAGACAAAUCUGCCACAAAGCAUGAGAGCAUCGUCGGAUGCAGAGGCGACAGCCUUCGGUGGCGCGAUGGCGCCAACGUUCUCAACUAUGACACGCAAAACGCGUGCUCCGUUGAAUGGAGUUCAUCAUG [U44A U55G G71A A91G U146C], the “polymerase ribozyme fitness (log ratio)” value was at most -4.2. The figure for GGAUCUUCUCGAUCUAACAAAAAAGACAAAUCUGCCACAAAGCGUGAGAGCAUCUUCGGAUGCAGAGGCGGCUGCCUUCGGUGGUGCGAUAGCGCCAACGUUCUCAACGAUGACACGCAAAACGCGUGCUCCGUUGAAUGGAGUUUAUCAUG [U44G A73U C85U U109G] is at most -4.2; for GGAUCUUCUCGAUCUAACAAAAAAGACAAAUCUGCCACAAAGCAUGAGAGCAUCAUCGGAUGGAGAGGCGGCAGCCUUCGGUGGUGGGAUAUCGCCAACGUUCUCAACUAUGACACGCAAAACGCGUGCUCCGUUGAAUGGAGUUUAUCAUG [U44A U55A C63G C85U C87G G92U] it is at most -4.2.
